ChEMBL document CHEMBL4888484, “Replenishing the malaria drug discovery pipeline: Screening and hit evaluation of the MMV Hit Generation Library 1 (HGL1) against asexual blood stage Plasmodium falciparum ,using a nano luciferase reporter read-out” (2022)
In all, about 150,000 compounds went through this assay and about 540 (0.36%) showed an effect of 50% or more. The list shows a part of the results.

What follows are compounds tested on Plasmodium falciparum (assay: Primary screen in NF54 nanoGlo assay, in single point, at 2uM, 72h; a lower Z score goes with more inhibition). Conditions: timepoint 72 hour.
Type: functional, Erythrocyte

SMILES | % Inhibition [%] | Z score
Cc1nn(C)c2nc(-c3ccccn3)nc(N3CCO[C@@H](CN)C3)c12 | 0 | 0.02
C[C@]1(O)CCN(C(=O)CCc2cn3ccccc3n2)C[C@@H]1O | -5 | 0.97
CC(C)(C)OC(=O)N1CC[C@@]2(C1)NC(=O)N(Cc1cc(-c3cccs3)on1)C2=O | 17 | -1.97
Cc1csc(CNc2nnc(C(C)C)o2)n1 | 7 | -0.84
C=C(C(=O)N1CCN(C2CC2)C(=O)C1)c1ccc(Cl)cc1 | -14 | 1.51
CCn1nc2n(c1=O)CCN(C(=O)c1nccn1C)[C@@H]2c1ccccc1 | -7 | 1.02
Cc1ccc([C@@H](O)CNC(=O)C(C)(C)S(=O)(=O)C2CC2)cc1 | -4 | 0.6
Cc1nnccc1NC(=O)NCc1cccc2c1OCC2 | 2 | -0.35
Cc1ccc(C)c(N2CCN(C(=O)CCc3ccccc3)[C@@H](C)C2=O)c1 | 4 | -0.62
CC(C)C[C@H]1CN(C)CCN1C(=O)CCc1cn(C)nn1 | -3 | 0.44
CCN1CCN(C(=O)C[C@H](c2ccc(C(F)(F)F)cc2)c2cn(Cc3ccccc3)c3ccccc23)CC1 | 0 | -0.01
O=C([C@@H]1COCC(=O)N1Cc1ccccc1)N1CCC(Cc2ccccc2)CC1 | -7 | 1.37
O=S(=O)(CCC1CCOCC1)N1CC2(CC2)C1 | -10 | 1.86
CN1C[C@@H](NC(=O)c2ccnn2C2CCC2)Cc2ccccc21 | -1 | 0.12
O=C(Nc1ccc(Cl)cc1)n1c(=S)oc2cc(Br)ccc21 | 34 | -4.34
COCCC1(CNC(=O)c2cccnc2O[C@@H](C)C(F)(F)F)CCCC1 | -10 | 1.44
CCc1nc([C@@H]2CCCN2c2ncccc2C#N)no1 | -8 | 0.94
COCCOc1ccc(-c2nc(-c3oc(C)nc3C)cs2)cn1 | -9 | 1.43
O=C(NCCc1ccc(Cl)s1)N1CCC[C@@H]1CO | -6 | 1.06
CC(CO)NC(=O)CC1CCCCO1 (centres undefined) | 0 | 0.03
O=C(CCc1ccc(F)cc1)NCc1n[nH]c(=O)[nH]1 | -19 | 2.54

SMILES | % Inhibition [%] | Z score
Cc1c(Br)cc(F)cc1C(=O)N(C)CC(C)(CO)CO | 2 | -0.26
CC(=O)NCC(=O)NCc1ccc2c(c1)ncn2C(C)C | -10 | 0.99
CN(C)c1cccc(NC(=O)NCCN2CCC[C@H](CO)C2)c1 | -12 | 2.26
CCCCc1nc(CN2CC[C@@]3(CCCN(Cc4ccc(F)c(F)c4)C3)C2)c[nH]1 | 1 | -0.22
O=C(CCC(F)(F)F)NCCCC[C@H]1CCCO1 | -9 | 0.92
CN(CCCNC(=O)c1nc(CS(=O)(=O)c2ccc(Cl)cc2)no1)Cc1ccccc1 | 8 | -1.46
C#Cc1cc(F)c(NCc2nnc(C)s2)c(F)c1 | -5 | 0.53
COCCNC(=O)c1ccc(COc2ccc3c(c2)[C@H](c2ccccc2)N(C(=O)C(C)(C)C)CC3)o1 | 0 | -0.03
O=C1CC[C@H](C(=O)NCc2ccc(-c3ccc4c(c3)CCO4)cc2)N1 | -2 | 0.41
COCCOCC(=O)N1CC[C@@H]2CN(Cc3ccccc3)[C@@H]2C1 | 5 | -0.98
CCC(CC)n1nc(C(=O)N2CC3(CCOCC3)C2)cc1C | 30 | -3.37
COCCn1cncc1CN1CCn2nc(CO)cc2C1 | 0 | -0.03
Cc1c(C(F)(F)F)nn(C)c1NC(=O)NCc1nccn1CCCc1ccccc1 | -8 | 1.11
CN(Cc1nccs1)C(=O)NC[C@H]1CCN(Cc2ccccc2F)C1 | 0 | -0.05
CCOc1ccc(N2C(=O)C3ON(c4ccccc4)C(c4ccc(OCc5ccccc5)c(OCC)c4)C3C2=O)cc1 (centres undefined) | 0 | -0.06
Cn1cc(CCC(=O)N2CCc3ccccc3C2(C)C)cn1 | -4 | 0.55
CC1CCCc2ncc(C(=O)N[C@@H]3C[C@H]3c3cnn(-c4ccccc4)c3)n21 (some centres undefined) | -18 | 2
CCN(Cc1nc2ccccc2c(=O)[nH]1)C(=O)c1ccc(=O)n(C)n1 | 13 | -1.94
COc1cccc(C2C3C(=O)N(c4ccc5ccccc5c4)C(=O)C3ON2c2ccccc2)c1 (centres undefined) | -7 | 0.75
O=C(Nc1ccc(Cl)cc1Cl)[C@@H]1CCCN1c1nccc(C(F)(F)F)n1 | 10 | -1.93
CC(C)[C@H](NS(=O)(=O)C1CC1)c1nccn1C | 0 | -0.02

SMILES | % Inhibition [%] | Z score
CN1Cc2ccccc2C[C@H]1C(=O)NC1(C(=O)O)CCCC1 | -12 | 2.36
Cc1nnc(-c2cc(CC(C)C)n(-c3cccc(C(=O)NC[C@H]4COC(C)(C)O4)c3)n2)o1 | 6 | -0.76
COc1ccc(-n2nc(C)c(CCC(=O)Nc3ccc(F)cc3)c2Oc2cccc(F)c2)cc1 | 3 | -0.39
COc1nc(N[C@@H](C)C2=CCCCC2)ncc1F | -14 | 1.55
CNC(=O)NC(=O)C(C)NC(C)c1cccc(OC(C)C)c1 (centres undefined) | -8 | 1.19
CCCN1CCN(S(=O)(=O)c2c(C)[nH]c(-c3nnc(C4CCC4)o3)c2C)CC1 | 8 | -1.16
O=C(c1cc(-c2ccc3c(c2)OCO3)nc2c1cnn2Cc1ccc(Cl)cc1)N1CCOCC1 | -27 | 3.2
COC[C@@]12CN(C(C)=O)CC[C@@H]1CN(C(=O)CCc1ccccc1)C2 | -14 | 1.7
COCc1noc(-c2ncccc2OC(C)C)n1 | -6 | 0.85
CN(CCO)C(=O)C1(N2CCCCC2)Cc2ccccc2C1 | -15 | 2.16
CC(=O)Nc1c(C)nn(-c2ccccc2)c1N1CCC(C(=O)Nc2ccccc2C(F)(F)F)CC1 | -6 | 1.05
O=C1CCC(=O)N1C1CC2CCC(C1)N2C(=O)Cc1ccc2c(c1)OCO2 (centres undefined) | -13 | 1.54
c1cc2c(cc1Cn1cc(-c3cnn(Cc4ccc5c(c4)OCO5)c3)cn1)OCO2 | -2 | 0.39
CCc1nc2c(s1)[C@@H](NCC(C)(C)C(N)=O)CCC2 | -7 | 0.66
CCCc1noc(Cn2cnc3c4ccccc4n(CC(=O)Nc4ccc(C(C)C)cc4)c3c2=O)n1 | -2 | 0.23
COCCN1CCC[C@H](c2nc(Cc3ccccc3OC)n[nH]2)C1 | -7 | 1.25
C[C@@H](c1nc(-c2ccncc2)nn1C1CCCCC1)N1CCN(C)CC1 | -5 | 0.99
O=C(c1ccccc1Cl)N1C[C@H]2CC[C@@H](C1)N(Cc1ccccc1)C2=O | -3 | 0.44
Cn1cnnc1CCC(=O)NCCC1=CC[C@H]2C[C@@H]1C2(C)C | -11 | 1.13
O=C1CN(c2nc(-c3cccnc3)nc3c2CNC3)CCN1 | -15 | 1.5
O=C(c1cccc(OC(F)F)c1)N1CCn2c(n[nH]c2=O)C1 | -15 | 1.39

SMILES | % Inhibition [%] | Z score
COc1ccc(C(=O)N2CC(=O)N(c3cccc(Cl)c3)C[C@@H]2C)o1 | -17 | 2.34
N#Cc1c(N2C(=O)C3ON(c4ccccc4)C(c4ccccc4)C3C2=O)sc2c1CCCC2 (centres undefined) | 0 | -0.03
CCCN1CCN(Cc2oc3ccccc3c2C)[C@H]2CS(=O)(=O)C[C@H]21 | 1 | -0.22
N#Cc1ccccc1CN1C[C@@H](CO)[C@H](NC(=O)c2cccnc2)C1 | -12 | 2.11
O=C(Nc1ccc(C(F)(F)F)cc1)N1CC2COCC(C2)C1 | -6 | 0.87
CN(C)c1nc(CNS(=O)(=O)c2ccc(-n3cccn3)cc2)nc(N2CCCCC2)n1 | 11 | -1.42
CCCC1CCC(C(=O)Nc2ccc3c(c2)C(=O)N(C)C3=O)CC1 (centres undefined) | 31 | -3.56
Cc1ccc(CS(=O)(=O)Nc2ccccc2C(=O)N2CCCCC2)cc1 | -8 | 1.06
CC(C)(C)CN(CC(C)(C)C)C(=O)NC1CCOCC1 | 7 | -1.02
COc1ncccc1NC(=O)N1CC(O)CC1c1ccc(F)c(F)c1 (centres undefined) | 4 | -0.37
CN(Cc1nc2ccccc2c(=O)[nH]1)c1nc(N)nc2[nH]cnc12 | 8 | -1.12
O=C(Cn1c(C2CC2)nc2ccccc21)N1CCC[C@H](n2cccn2)C1 | -6 | 0.79
CCOc1nc(Nc2ccc(F)cc2)nc(N2CCN(c3ccc(OC)cc3)CC2)n1 | -7 | 1
O=C(NC1CC2CCC1C2)c1cncn1-c1ccc(-c2cc(C(F)(F)F)cc(C(F)(F)F)c2)cc1 (centres undefined) | -6 | 1.12
CCOc1ccccc1C(=O)N[C@H]1CCOC[C@@H]1O | 13 | -1.55
CC(C)[C@H]1C(=O)NCCN1Cc1ccccc1OCCN1CCOCC1 | -15 | 1.63
CC(C)c1nnc2ccc(NC(=O)[C@@H]3CCCO3)cn12 | -14 | 1.44
Cc1nn(C)c2nc(N3CC[C@H](c4ccccc4F)C3)sc12 | -2 | 0.29
O=C(c1coc(-c2ccccc2Cl)n1)N1CC(CC(F)F)C1 | -16 | 2.25
